We go through 24 sequences from the supplement of paper PMC11417369.

The other results are listed elsewhere or left out.

This assay relates to PfHDP1 homeodomain (GST-tagged). Put plainly: gcPBM binding intensity (ln(normalized median fluorescence intensity)); higher = stronger DNA binding. The essentials: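 Binding intensity is the highest Masliner-normalised natural-log median intensity over replicate spots in either probe orientation. To obtain it, GST-tagged P. falciparum DNA-binding domains made in E. coli were incubated for 1 h on an Agilent 4 × 180k array of primer-extended double-stranded 36-bp intergenic genomic probes plus negative controls. Detection used Alexa488 anti-GST antibody with scanning at 488 nm.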
Turning to “CATACATACGGACACACACACATATATATATATATA [CACACA_site5598]”, the “gcPBM binding intensity (ln)” value was 9.34.

Take “ATAATGTTTCTTTCAACACACAAAAAATGAACACAT [CACACA_site1552]”: the “gcPBM binding intensity (ln)” value was 6.93.

As to “AAAAAAGAAAAAAGGACACACATAAATATACTCACG [CACACA_site2904]”, the “gcPBM binding intensity (ln)” value came out at 6.48.

As for “AAAAAAAAAAAATAGACCTCCTAAGCAAAAGAAAAA [GTGCAC_negctrl_site634]”, the “gcPBM binding intensity (ln)” value was determined as 5.91.

Take “TATATAAGCGCATGCACACGCAAAGGTATATAAATA [CACACA_site622]”: the “gcPBM binding intensity (ln)” value came to 8.78.

Take “AATTTAAATTAGAATTGTACTAGAAAAGGAATATAT [XGTACX_site6162]”: the “gcPBM binding intensity (ln)” value came to 6.59.

In the case of “AATATAAATAAAAACACACACAATGGTACAGATATA [CACACA_site5930]”, the “gcPBM binding intensity (ln)” value was determined as 7.05.

“AATTATATAATCTTATAACATAATATAATAACATTT [CACACA_negctrl_site187]”: the “gcPBM binding intensity (ln)” value stood at 6.22.

Regarding “TAAAAAATATTATATACACACAGTATAAAAAAAAAT [CACACA_site4012]”, the “gcPBM binding intensity (ln)” value was 6.5.

As for “TTATCCTATACAAGGGAAAAATAAAATAAAATAAAT [TGCATGCA_negctrl_site272]”, the “gcPBM binding intensity (ln)” value amounted to 6.47.

Take “AGTGTCATATAAAATTGTACTTTTTTTTTTTTCTTT [XGTACX_site5651]”: the “gcPBM binding intensity (ln)” value was 6.38.

With “ATATACATATTATAATGTACATATTTTAATAACCTT [XGTACX_site7617]”, the “gcPBM binding intensity (ln)” value was found to be 6.39.

Consider ATTGATTATTTTCTAGTGCATAAAATAATTTTTTTT, for which the “gcPBM binding intensity (ln)” value is 8.67.

“TATTTATTTGTTTAAGGTACAGAACAAATTTTTATT [XGTACX_site7414]”: the “gcPBM binding intensity (ln)” value is 6.22.

For the sequence “ATATTTATTATTATATGTACGTAACATCTTTATAAA [XGTACX_site7016]”, the “gcPBM binding intensity (ln)” value was 6.95.

Turning to “CATAAATACATACATACACACATATATATATATATA [CACACA_site2106]”, the “gcPBM binding intensity (ln)” value amounted to 9.32.

As to “AAATGTTCTTAAAAATGAATAATATATATATATATA [CACACA_negctrl_site796]”, the “gcPBM binding intensity (ln)” value is 9.08.

Regarding “TAAGAAAGACAAAAAAAATGAAAAGAAAAAAAATGA [CACACA_negctrl_site1469]”, the “gcPBM binding intensity (ln)” value worked out at 6.15.

Consider “AAATGTTGAAAAATATGTACATATTATATATATTAT [XGTACX_site1165]”, for which the “gcPBM binding intensity (ln)” value was determined as 6.53.

Turning to “ATTTAGAAAAAATATACACACAGCCTAAACATGCAT [CACACA_site4067]”, the “gcPBM binding intensity (ln)” value stood at 6.48.

With “AATATAAGCAAATACACACACACATATATATATATA [CACACA_site3805]”, the “gcPBM binding intensity (ln)” value was 9.22.

For “TTTTAATTTATTTATGCACACATATATAATTACACA [CACACA_site8126]”, the “gcPBM binding intensity (ln)” value is 10.1.

For the sequence “AAAAATAAACAATATATAGTTATATATATATATATA [TGCATGCA_negctrl_site82]”, the “gcPBM binding intensity (ln)” value stood at 9.34.

Consider “ATTATATATATGTGCACACAAAAGATATATATATAT [CACACA_site5205]”, for which the “gcPBM binding intensity (ln)” value is 11.1.
